Source: article PMC6268909 (Molecules, 2012)
≈ marks a conversion by molar mass, not a printed value.

Test system: Caenorhabditis elegans
Assay: whole plant or invertebrate
Details: 24 h, read-out: IC50, Antinematodal activity on C. elegans
Procedure: The nematode Caenorhabditis elegans, which was kindly supplied by Dr. Yuanmei Zuo at the College of Resources and Environmental Sciences, China Agricultural University, was inoculated on the nematode growth medium (NGM) that was cultured previously with Escherichia coli OP50according to methods of Steiemagle. The NGM plate was full of the worms after 4 to 5 days at 16 °C in darkness. In order to determine the IC50 values of the compounds, 5% acetone-water solutions of each sample at 1, 5, 10, 25, 50, 100, and 200 μg/mL were assayed for antinematodal activity. The test nematode dilution (90 μL containing 40–50 nematodes) was added into each well of the sterile 96-well microplate and then, 10 μL of sample stock solution was added into each well and mixed thoroughly. 5% acetone-water solution was used as the negative control. Avemectin B1, which was kindly provided by Dr. Shankui Yuan at the Institute for the Control of Agrochemicals, Chinese Ministry of Agriculture, was used as the positive control with the purity of 97.2%. It was a mixture of avermectin B1a and avermectin B1b in the ratio of 9.5 to 0.5 (w/w). Five replicates were carried out for each treatment, and the experiments were repeated twice. Dead and active nematodes were counted after 24 h. […] The mean percentage of mortality was then calculated. The net percentage of mortality was about 3% by using 5% acetone-water solution as the negative control after 24 h. Nematode recovery was not observed to the dead nematodes. The IC50 value calculation for the antinematodal activity was the same as that for antibacterial activity assay.

| SMILES | IC50 |
| --- | --- |
| COc1cc(O)c2c(=O)oc3cc(O)c(Cl)c(C)c3c2c1 [Palmariol B (1), 2-chloro-3,7-dihydroxy-9-methoxy-1-methyl-6H-dibenzo[b,d]pyran-6-one] | 56.2 mg/L (≈ 183 µM) |
| CC[C@H](C)[C@H]1O[C@]2(C=C[C@@H]1C)C[C@@H]1C[C@@H](C/C=C(\C)[C@@H](O[C@H]3C[C@H](OC)[C@@H](O[C@H]4C[C@H](OC)[C@@H](O)[C@H](C)O4)[C@H](C)O3)[C@@H](C)/C=C/C=C3\CO[C@@H]4[C@H](O)C(C)=C[C@@H](C(=O)O1)[C@]34O)O2 [avermectin, reference compound] | 3.7 mg/L (≈ 4.24 µM) |
| CC1OC(=O)c2c(O)cccc2C1O (centres unmarked) [4,8-dihydroxy-3-methylbenzopyran-1-one] | 86.9 mg/L (≈ 447 µM) |
| COc1cc(O)c2c(=O)oc3cc(O)cc(C)c3c2c1 [Alternariol 9-methyl ether (3), 3,7-dihydroxy-9-methoxy-1-methyl-6H-dibenzo[b,d]pyran-6-one] | 94 mg/L (≈ 345 µM) |
| COC1=CC2(C)OC(=O)c3c(O)cc(OC)cc3C2=C(O)C1=O (centres unmarked) [Botrallin (4), 1,7-dihydroxy-3,9-dimethoxy-4a-methyl-6H-dibenzo[b,d]pyran-2,6 (4aH)-dione] | 84.5 mg/L (≈ 266 µM) |
